Here are results for 44 sequences from the supplement of paper PMC11417369.

Some of the results follow.

The test concerns PF3D7_0420300 AP2 domain 1 (GST-tagged). The experiment in a line: gcPBM binding intensity (ln(normalized median fluorescence intensity)); higher = stronger DNA binding. An outline of the steps: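 Binding of GST-tagged P. falciparum DNA-binding domains, expressed in E. coli and used at about 25 μg on average, was carried out for 1 h in 1× PBS containing 1% milk, 0.2 mg/ml BSA, 0.5% salmon testes DNA and 0.03% Triton X-100. The target was an Agilent 4 × 180k array of primer-extended double-stranded 36-bp intergenic genomic probes plus negative controls, read with Alexa488 anti-GST antibody at 488 nm. Binding intensity is the highest Masliner-normalised natural-log median intensity across replicate spots of either probe orientation.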
With “AAGAAGAATAGGCGTTGTACGGAATGTAGTAGAGTT [XGTACX_site2430]”, the “gcPBM binding intensity (ln)” value is 9.59. Next, “TTAATATAAATATGATTTTTGATTCCTATACTATTT [CACACA_negctrl_site752]”: 9.19; “TTGTATTCATATGGTTGTACATATTAAAAGTTCTAA [XGTACX_site7255]”: 9.05. Regarding “ATAAAATGATGTATCTGTGTATGTTTATTTTGTTTT [XGTACX_negctrl_site367]”, the “gcPBM binding intensity (ln)” value came to 9.66.

Consider “ATTATATACAAATAAAGTACATAAACAAATTCAGAA [XGTACX_site1187]”, for which the “gcPBM binding intensity (ln)” value amounted to 9.64. With “TATTTCAAACTGTTCTCACACACGAAATTAGAAATG [CACACA_site611]”, the “gcPBM binding intensity (ln)” value was 9.26.

Take “TTTTGAATATGGATCTTATATATATTAAATAAATAA [CACACA_negctrl_site344]”: the “gcPBM binding intensity (ln)” value worked out at 8.77.

“ATTCCAGAAATATATTAACAAGGAAAATATAAAAAT [CACACA_negctrl_site343]”: the “gcPBM binding intensity (ln)” value amounted to 9.28. Next, “TTGAGCCTACAAAAGGGTACACATTCAATTTATTTT [XGTACX_site6570]”: 9.12. Regarding “ATATTTTGTTATGAAACACACACATATATATATATA [CACACA_site9216]”, the “gcPBM binding intensity (ln)” value was determined as 9.64. Next, “AAAAAAAAAAGAAATTGTACTTTTTGTTTAATAATT [XGTACX_site4681]”: 8.9. Next, “TACTAAGAAGTATTTACACACCAACAAGGCGAAAAA [CACACA_site2944]”: 9.45. For “ATATGTATAAAAATCCGTACATAAGTGTGCGTATAT [XGTACX_site4376]”, the “gcPBM binding intensity (ln)” value was determined as 9.32. The figure for “ATGTTTGAGCCTAAGGTGCATATAAAAATATATGTG [GTGCAC_site9690]” is 9.07. Consider “ATAAATAATATGTAAACACACAAAAAATAAAAATGA [CACACA_site1178]”, for which the “gcPBM binding intensity (ln)” value is 9.72.

As for “ATATATATTATATATGCATGCCAAATCTTTATAAAC [TGCATGCA_site1042]”, the “gcPBM binding intensity (ln)” value came to 9.18. The figure for “ACATATATATATATATATATATATATATATAGATAG [CACACA_negctrl_site783]” is 9.17. Next, “AAAACTAAATGTTATTCGCACACGGAATTTATTTAA [CACACA_site9221]”: 9.19. The figure for “CTTTTTACTTAATACACACACACACTAAAAAAAAAA [CACACA_site6574]” is 9.94. For the sequence “ACAAAAAAATATTTATGTACTTATTATATTTATAAT [XGTACX_site2059]”, the “gcPBM binding intensity (ln)” value is 9.11. The figure for “ATAAAGAAATTACACACATGCAATGAAAAAAAAAAA [TGCATGCA_site406]” is 9.62; for “AATAAAATAAAAAAAAATAAAAAAAAAATAAAAAAT [XGTACX_negctrl_site245]” it is 9.71. On to “TATATATATATTTAATGTACATGTTTATTTTATCAT [XGTACX_site499]”, for which the “gcPBM binding intensity (ln)” value was 9.23.

Consider “TATTTTTCTTTTTAAGTGCATGGTTGTATAAAATTT [GTGCAC_site9480]”, for which the “gcPBM binding intensity (ln)” value was determined as 9.23. The figure for TTTATAAAGGGAAAGGTGCAAAAGGTGAAAGTTTTA is 9.38; for “TCTTTTTTGAAGCATTTTGTTTTTTAATAAGTAAAA [TGCATGCA_negctrl_site247]” it is 8.85; for “GAGTTTATATTTTAAGCATGCATATGTTATTATTAT [TGCATGCA_site1049]” it is 9.46. Turning to “TATATCAAAAACGAGACATGCATGCCGTTCATTTTG [TGCATGCA_site211]”, the “gcPBM binding intensity (ln)” value was found to be 9.12. Next, “TATATAAGAATATATACACACATATCTGTATTTATA [CACACA_site5231]”: 9.37; “AAAAAAACAGAAAACACACAAATTATCTTATAATTA [CACACA_site6282]”: 9.45. Next, “TTATTAACGGAACTCTGTACTTAAAAAATTTTAGAA [XGTACX_site8787]”: 8.97; “ATTGTTTCATTAAAATGTACATAAATTGTGTATAAT [XGTACX_site5341]”: 9.2; “TAAAGCAACTGAAACACACAAATTTTTTTTTTTTTT [CACACA_site7499]”: 9.4. Consider “AAACTGAAAAAAATATGTACATATTTATATCTTATA [XGTACX_site3011]”, for which the “gcPBM binding intensity (ln)” value came out at 9.09. For “ATTGTATAAAAATGTACATGCAATAAATTTAGTTCT [TGCATGCA_site675]”, the “gcPBM binding intensity (ln)” value stood at 9.18.

As for “AAAAAAAAAAAACACACACACAAATACAAATACATA [CACACA_site415]”, the “gcPBM binding intensity (ln)” value worked out at 10.2. Regarding “TAGTATAATATATATTGTACGTTTTAATTGTTTATA [XGTACX_site2731]”, the “gcPBM binding intensity (ln)” value worked out at 9.18. For “GAAACGTTTTTTCAGTGTACATTTTACCGATTTGTA [XGTACX_site8249]”, the “gcPBM binding intensity (ln)” value came out at 9.35.

“ATATAATGAAGTGAATGTACATATAAAATGTAAAAA [XGTACX_site8052]”: the “gcPBM binding intensity (ln)” value was 9.46.

In the case of “TCAAAATATCCAAAAGAATAAAGAAAAAAAAAAAGA [CACACA_negctrl_site1377]”, the “gcPBM binding intensity (ln)” value stood at 9.25. The figure for “TTTTTATAAATAATAAGGCGTATGAAAATAAAATAA [TGCATGCA_negctrl_site421]” is 9.12; for “TCAAATTTAATCATAACACACATTCACATATGAATT [CACACA_site3199]” it is 9.16; for “ATATAACATTGTTTTGCATGTAAATATTCAATTTTT [TGCATGCA_site758]” it is 9.19. Next, “TCATATATATATATATGTACATATTTATGTATGTAT [XGTACX_site6291]”: 9.18.
